Source: PubChem BioAssay AID485344 (National Center for Advancing Translational Sciences (NCATS), 2010)
Hit rate of the full screen: of about 340,000 compounds, about 6,900 (2%) were called active. Cut-off read from the data, not from the text of the source: active = inhibition above about 30%; inactive = below that, where a call was filed. The list shows a part of the results, in another mix than the full data. The source gives no active or inactive call for entries shown without one.

target: D(2) dopamine receptor (Homo sapiens) (UniProt P14416); assay: HTS Assay for Allosteric Antagonists of the Human D2 Dopamine Receptor: Primary Screen for Antagonists; conditions: HEK293 TREx D2 cells, calcium flux, dopamine EC80; at 10 µM; stronger effect = higher value; note: 0% is about no effect
How it was run: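 Inhibition of EC80 dopamine-driven calcium flux, recorded kinetically, defines activity here; cells are a tetracycline-induced HEK293 T-REx line expressing force-coupled D2.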

Chain of UniProt P14416 (P14416 whole entry, looked up): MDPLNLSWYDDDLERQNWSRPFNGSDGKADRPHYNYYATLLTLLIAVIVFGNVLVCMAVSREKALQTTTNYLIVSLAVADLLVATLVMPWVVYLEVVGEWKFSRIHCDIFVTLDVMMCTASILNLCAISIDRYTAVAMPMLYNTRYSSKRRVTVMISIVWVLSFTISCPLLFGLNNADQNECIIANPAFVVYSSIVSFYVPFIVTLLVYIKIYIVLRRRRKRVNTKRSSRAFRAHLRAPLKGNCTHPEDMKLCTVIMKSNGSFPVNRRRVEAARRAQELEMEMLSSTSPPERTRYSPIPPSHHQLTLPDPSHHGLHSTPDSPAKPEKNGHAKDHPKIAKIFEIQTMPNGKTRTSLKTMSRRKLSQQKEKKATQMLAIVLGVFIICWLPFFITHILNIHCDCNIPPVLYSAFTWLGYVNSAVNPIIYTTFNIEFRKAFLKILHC

Compound	inhibition
CCOC(=O)C1CCCN(C(=O)c2ccc3c(c2)sc2nc(-c4cccc(OC)c4)cn23)C1 (stereo unspecified)	6.47%
CCc1ccccc1NC(=O)NC1CC2CCC(C1)N2Cc1cccs1 (stereo unspecified)	active: 55%
CCCC(=O)Nc1cccc(OCc2cc(=O)n3cccc(C)c3n2)c1	-4.33%
Cc1cc(=O)n2nc(N(C)CC(=O)NCc3ccccc3C)sc2n1	-0.198%
CCc1ccccc1Nc1nn2c(=O)c3ccc(C(=O)NCCC4=CCCCC4)cc3nc2s1	17.5%
O=C(NCCc1ccccc1)c1cc(Nc2ccccc2)nc2ccccc12	-19.3%
CCCSc1ncc(Cl)c(C(=O)Nc2ccc(S(=O)(=O)N3CCCC(C)C3)cc2)n1 (stereo unspecified)	-5.79%
O=C(Nc1nc2c(F)cccc2s1)c1ccc(S(=O)(=O)N2CCOCC2)cc1	-3.97%
CCc1nnc(SCc2nc(-c3ccccc3Cl)oc2C)c2cc3sc(C)cc3n12	7.11%
COc1ccc2[nH]cc(CCNC(=O)Nc3ccccc3)c2c1	0.927%
COc1ccc(CN(C(=O)c2ccccc2F)C2CCS(=O)(=O)C2)cc1 (stereo unspecified)	-11.6%
Cc1ccc(NC(=O)CN2C(=O)c3cccnc3Sc3ccccc32)cc1C	-11.1%
Cc1nc2sc(C)c(C)n2c(=O)c1S(=O)(=O)N1CCN(c2ccccc2F)CC1	-14%
Cc1ccc2c(Sc3ccc(Cl)cc3)c(C(=O)NCCC(C)C)[nH]c2c1	25.3%
Cc1c(C(=O)N(Cc2ccc(N(C)C)cc2)CC2CCCO2)oc2ccccc12 (stereo unspecified)	12%
Cc1cccc(N2CCN(C(=O)c3ccc4nc(N5CCC(C)CC5)sc4c3)CC2)c1C	13%
Cc1cccc(C)c1NC(=O)Cn1c(=O)n(Cc2ccc(C(=O)NCc3ccco3)cc2)c(=O)c2sccc21	-1.47%
CCOC(=O)Cc1cc(C(=O)Nc2ccc(Br)cc2)sc1-c1ccc(C)cc1	11.2%
COc1cccc(N2CC(NC(=O)c3ccc4ccccc4c3)CC2=O)c1 (stereo unspecified)	active: 34.4%
Cc1ccn2c(NC(=O)c3cccc(Cl)c3)c(-c3ccccc3)nc2c1	5.51%
CCCC(=O)N1CCc2cc(OC)c(OC)cc2C1COc1ccccc1OC (stereo unspecified)	11.4%

Compound	inhibition
CCc1ccc(CNc2ncc(-c3cccc(OC)c3)n2C)cc1	-9.18%
CCOC(=O)c1c(C)[nH]c(C)c1S(=O)(=O)N1CCCC(C(=O)Nc2ncccc2C)C1 (stereo unspecified)	9.22%
CCS(=O)(=O)N1CC(=O)N(c2cccc(Cl)c2)C(C)(C(=O)NC2CCCCCC2)C1 (stereo unspecified)	-0.252%
CC(C)CCn1c(=O)c2cccnc2n(CC(=O)Nc2ccccc2)c1=O	-2.47%
Cc1oc(-c2ccc(C(=O)NCCC(C)C)cc2)nc1CS(=O)(=O)c1ccccc1	16.7%
COC(=O)c1sccc1S(=O)(=O)N(CC(=O)NCc1ccc(C)cc1)c1ccccc1	-1.3%
N#Cc1c[nH]n2c(NC3CCCC3)c(-c3cccc(Br)c3)nc12	9.17%
CC1CCN(S(=O)(=O)c2ccc3c(c2)CCN3C(=O)Nc2cccc(Br)c2)CC1	-7.05%
Cc1ccc(-c2nc3n(n2)C(c2ccccc2Cl)C=C(c2ccc(Cl)cc2)N3)cc1 (stereo unspecified)	18.9%
CCOC(=O)c1ccc(CN(Cc2ccc(C)cc2)S(=O)(=O)c2ccc(F)c(C(=O)Nc3ccc(C)c(F)c3)c2)cc1	-2.24%
CCOCCc1nn2c(=O)cc(COC(=O)c3ccccc3NC(=O)c3ccccc3F)nc2s1	7.08%
Cc1ccc(S(=O)(=O)NC2(C(F)(F)F)NC(=O)N(c3ccc(F)cc3)C2=O)cc1 (stereo unspecified)	16.4%
CCOc1ccc(C(=O)c2cn(CC(=O)Nc3ccc(OC)cc3)c3cc4c(cc3c2=O)OCO4)cc1	-6.97%
COc1ccccc1NS(=O)(=O)c1cccc(C(=O)NCC(c2ccco2)N2CCCC2)c1 (stereo unspecified)	active: 62.6%
Cc1ccc(NC(=O)N2CC3CCCN3c3ccccc32)cc1C (stereo unspecified)	6.25%
CCN(CC)Cc1ccccc1CNC(=O)c1cccc(S(=O)(=O)Nc2ccc3c(c2)OCO3)c1	active: 74.5%
COc1ccc(C(=O)Nc2ccc(NC(=O)c3cccs3)cc2)cc1OC	1.1%
O=C(Oc1ccccc1C(=O)N1CCOCC1)c1cccc(Br)c1	active: 47.3%
COc1cccc(OC)c1OCC(O)CN1CCN(c2ccc(F)cc2)CC1 (stereo unspecified)	active: 73%
Cc1cccc(C(=O)NCC(c2cccs2)S(=O)(=O)c2cccs2)c1 (stereo unspecified)	-27.7%
Cc1ccc2oc3c(c(=O)c2c1)C(c1ccccc1F)N(c1ccccn1)C3=O (stereo unspecified)	-13.5%

Compound	inhibition
COc1ccc(Cn2ccnc2SCC(=O)Nc2ccc3c(c2)OCO3)cc1	6.87%
COc1ccc(-c2cc(C(F)(F)F)n3nc(C(=O)Nc4cc(C(F)(F)F)ccc4Cl)cc3n2)cc1OC	-4.17%
O=C(NCCc1ccccc1)C(=O)NCC1OCCN1S(=O)(=O)c1ccc(Br)cc1 (stereo unspecified)	active: 30.6%
CCN1CCN(Cc2c(O)ccc3oc(C)c(C(=O)Nc4ccc(OC)cc4)c23)CC1	13.1%
CCn1c(SCC(=O)Nc2cc3oc4ccccc4c3cc2OC)nnc1-c1cccs1	active: 44.8%
Cc1ccc(NC(=O)CSc2nc3nc(C)c(Cc4ccccc4)c(C)n3n2)cc1	2.73%
CC(C)CNC(=O)N1CCN(S(=O)(=O)c2ccc3c(ccn3C)c2)CC1	18%
Cc1oc2c(c1C(=O)Nc1ccc(F)c(F)c1)C1=NCCN1C=N2	4.79%
CCc1cccc(CC)c1NC(=O)CCS(=O)(=O)c1ccc(Br)s1	-4.37%
CCCCOc1ccc2c(C)cc(=O)oc2c1OCCCC	active: 42.9%
Cc1cccc(C)c1NC(=O)c1nc(S(C)(=O)=O)ncc1N(Cc1ccc(C(C)(C)C)cc1)Cc1ccco1	-3.37%
CCOC(=O)c1ccccc1Nc1nc2ccc(C)cc2n2nnnc12	16%
Cn1cc(-c2cc3n(n2)CCC(=O)N3CCCC(=O)NCc2ccc(F)cc2)c2ccccc21	1.03%
CCOc1ccc(NC(=O)c2oc3ccccc3c2NC(=O)C2CCCCC2)cc1	-1.38%
Cc1ccc(NC(=O)Cn2c(=O)c(C(F)(F)F)nc3ccccc32)cc1C	4.4%
CCOC(=O)c1ccccc1NC(=O)Cn1nnc2sc3c(c2c1=O)CCCC3	22.3%
COc1ccc(CNC(=O)C2CCCN(S(=O)(=O)N(C)c3ccc(F)cc3)C2)cc1OC (stereo unspecified)	1.11%
O=C(OCc1cc(=O)n2nc(-c3cccs3)sc2n1)c1cccc(Cl)c1	7.73%
CCOC(=O)c1cccc(NC(=O)c2ccc3c(c2)nnn3CC)c1	-0.411%
